Results from patent US20250236654A1, “C-TYPE NATRIURETIC PEPTIDE ENGRAFTED ANTIBODIES” (Bayer Aktiengesellschaft, priority 2018, published 2025).

Tests used:
rat BNP receptor (NPR-A) = biological target: T1, rat BNP receptor (NPR-A) (Rattus norvegicus, UniProt P18910); experiment: Fluorescence-based rat BNP receptor (NPR-A) GCaMP6 reporter cell line; details: tested up to the max. concentration of 460 nM
T1 construct: expressed in transfected cells; host or cells: CHO cell line stably expressing GCaMP6, co-transfected with CNGA2 and rat NPR-A
T1 sequence (P18910 29-1057): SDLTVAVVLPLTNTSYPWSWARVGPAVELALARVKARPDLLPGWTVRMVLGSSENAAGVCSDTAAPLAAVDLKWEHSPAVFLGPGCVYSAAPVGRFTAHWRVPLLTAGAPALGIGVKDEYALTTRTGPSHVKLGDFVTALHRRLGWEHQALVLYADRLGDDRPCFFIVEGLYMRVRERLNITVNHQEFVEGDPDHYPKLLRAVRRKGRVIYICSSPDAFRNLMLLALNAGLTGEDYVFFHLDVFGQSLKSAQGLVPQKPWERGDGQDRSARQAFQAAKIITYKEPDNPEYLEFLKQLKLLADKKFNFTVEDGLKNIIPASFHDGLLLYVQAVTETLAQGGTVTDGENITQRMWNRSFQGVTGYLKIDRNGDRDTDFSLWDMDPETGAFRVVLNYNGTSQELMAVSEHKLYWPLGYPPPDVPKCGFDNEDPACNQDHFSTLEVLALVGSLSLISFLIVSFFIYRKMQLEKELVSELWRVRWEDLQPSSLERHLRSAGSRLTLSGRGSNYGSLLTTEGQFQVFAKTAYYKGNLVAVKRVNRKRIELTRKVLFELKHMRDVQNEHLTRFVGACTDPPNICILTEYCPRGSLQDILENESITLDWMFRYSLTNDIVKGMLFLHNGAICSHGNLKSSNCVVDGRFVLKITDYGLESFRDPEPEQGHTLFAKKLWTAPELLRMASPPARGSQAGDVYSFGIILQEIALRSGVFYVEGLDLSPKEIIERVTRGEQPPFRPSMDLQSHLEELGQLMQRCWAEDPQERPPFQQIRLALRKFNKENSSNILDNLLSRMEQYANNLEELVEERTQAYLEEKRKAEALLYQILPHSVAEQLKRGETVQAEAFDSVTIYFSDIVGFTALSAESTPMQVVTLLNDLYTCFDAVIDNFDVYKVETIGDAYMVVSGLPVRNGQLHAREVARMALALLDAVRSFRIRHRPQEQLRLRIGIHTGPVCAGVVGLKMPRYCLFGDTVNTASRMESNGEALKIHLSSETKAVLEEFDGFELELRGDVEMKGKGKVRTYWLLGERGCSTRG
Description: Activity data of BNP engrafted antibodies in NPR-A receptor cell line A luminescence-based rat BNP receptor (NPR-A) cell line was generated as described previously (Wunder et al. (2013), Eur J Pharmacol. 698: 131). Accordingly, a fluorescence-based rat BNP receptor (NPR-A) cell line was generated by co-transfecting a CHO cell line, stably expressing the fluorescent calcium sensor protein GCaMP6, with plasmid constructs encoding CNGA2 (cGMP biosensor) and rat NPR-A.
BNP receptor GCaMP6 cells were cultured for one day on black, clear-bottom 384-well microtiter plates (2500 cells/well). After removal of the cell culture medium reporter cells were loaded for 20 min with Tyrode (130 mM NaCl, 5 mM KCl, 2 mM CaCl2, 20 mM HEPES, 1 mM MgCl2, 4.8 mM NaHCO3 at pH 7.4) containing a black masking dye at 37° C. and 5% CO2. IBMX (0.2 mM) was used to prevent cGMP degradation by endogenous phosphodiesterases.
Fluorescence measurements (3 min, kinetic mode) were directly started upon agonist addition. Receptor ligands were added in Tyrode containing a black masking dye and 0.1% BSA. Measurements were done on a FLIPR Tetra®.

rat ANP receptor (NPR-A) = biological target: T2, rat ANP receptor (NPR-A) (Rattus norvegicus, UniProt P18910); experiment: Fluorescence-based rat ANP receptor (NPR-A) GCaMP6 reporter cell line; details: tested up to the max. concentration of 460 nM
T2 construct: expressed in transfected cells; host or cells: CHO cell line stably expressing GCaMP6, co-transfected with CNGA2 and rat NPR-A
T2 sequence (P18910 29-1057): T1 sequence (P18910 29-1057)
Experimental: IBMX (0.2 mM) was used to prevent cGMP degradation by endogenous phosphodiesterases. Fluorescence measurements (3 min, kinetic mode) were directly started upon agonist addition. Receptor ligands were added in Tyrode containing a black masking dye and 0.1% BSA. Measurements were done on a FLIPR Tetra®.

B1: TPP-5657: “empty” antibody without natriuretic peptide, SEQ ID NO 65 and SEQ ID NO 66; negative control (antibody, listed as Homo sapiens)
heavy: [letters of about 100 residues left out]LTGAEYFQHWGQGTLVTVSS[letters of human IgG1 constant region left out]
light: QSVLTQPPSVSGAPGQRVTISCTGSSSNIGAGYDVHWYQQLPGTAPKLLIYGNSNRPSGVPDRFSGSKSGTSASLAITGLQAEDEADYYCQSYDSSLSGVVFGGGTKLTVLGQPKAAPSVTLFPPSSEELQANKATLVCLISDFYPGAVTVAWKADSSPVKAGVETTTPSKQSNNKYAASSYLSLTPEQWKSHRSYSCQVTHEGSTVEKTVAPTECS
Rat BNP receptor (NPR-A)
  stimulation of the NPR-A cell line: did not significantly stimulate
Rat ANP receptor (NPR-A)
  stimulation of the NPR-A cell line: did not significantly stimulate
